# The supplement of paper PMC8728848
# The other results are listed elsewhere or left out.
# B1: Siglec-F (Mus musculus), Q920G3 (protein)
# chain: MRWAWLLPLLWAGCLATDGYSLSVTGSVTVQEGLCVFVACQVQYPNSKGPVFGYWFREGANIFSGSPVATNDPQRSVLKEAQGRFYLMGKENSHNCSLDIRDAQKIDTGTYFFRLDGSVKYSFQKSMLSVLVIALTEVPNIQVTSTLVSGNSTKLLCSVPWACEQGTPPIFSWMSSALTSLGHRTTLSSELNLTPRPQDNGTNLTCQVNLPGTGVTVERTQQLSVIYAPQKMTIRVSWGDDTGTKVLQSGASLQIQEGESLSLVCMADSNPPAVLSWERPTQKPFQLSTPAELQLPRAELEDQGKYICQAQNSQGAQTASVSLSIRSLLQLLGPSCSFEGQGLHCSCSSRAWPAPSLRWRLGEGVLEGNSSNGSFTVKSSSAGQWANSSLILSMEFSSNHRLSCEAWSDNRVQRATILLVSGPKVSQAGKSETSRGTVLGAIWGAGLMALLAVCLCLIFFTVKVLRKKSALKVAATKGNHLAKNPASTINSASITSSNIALGYPIQGHLNEPGSQTQKEQPPLATVPDTQKDEPELHYASLSFQGPMPPKPQNTEAMKSVYTEIKIHKC
# Columns and labels:
# Assay in all cases: glycan array binding signal (z-score within array); higher = stronger binding
# Conditions in all cases: glycan notation: IUPAC condensed, linker removed
# [1] = biological target: Neu5Ac(a2-3)Gal(b1-4)Glc
# Outline: (§1)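 Negative Z-scores can be read as non-binding. The Z-score is calculated within each array and then averaged across arrays of one protein sequence at different concentrations or buffers and across linkers. Arrays, 3228 in all, were curated from the Consortium for Functional Glycomics database and kept only where the protein sequence was available.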
# [2] = biological target: Neu5Ac(a2-3)Gal(b1-4)GlcNAc
# Outline: as §1
# [3] = biological target: Neu5Ac(a2-3)Gal(b1-4)GlcNAc(b1-2)Man
# Outline: as §1
# [4] = biological target: Neu5Ac(a2-3)Gal(b1-4)GlcNAc(b1-2)Man(a1-3)[GlcNAc(b1-2)Man(b1-4)GlcNAc(b1-2)Man(a1-6)]Man(b1-4)GlcNAc(b1-4)GlcNAc
# Outline: as §1
# [5] = biological target: Neu5Ac(a2-3)Gal(b1-4)GlcNAc(b1-2)Man(a1-3)[GlcNAc(b1-4)][Neu5Ac(a2-3)Gal(b1-4)GlcNAc(b1-2)Man(a1-6)]Man(b1-4)GlcNAc(b1-4)GlcNAc
# Outline: as §1
# [6] = biological target: Neu5Ac(a2-3)Gal(b1-4)GlcNAc(b1-2)Man(a1-3)[Neu5Ac(a2-3)Gal(b1-4)GlcNAc(b1-2)Man(a1-6)]Man(b1-4)GlcNAc(b1-4)GlcNAc
# Outline: as §1
# [7] = biological target: Neu5Ac(a2-3)Gal(b1-4)GlcNAc(b1-2)Man(a1-3)[Neu5Ac(a2-3)Gal(b1-4)GlcNAc(b1-2)Man(a1-6)]Man(b1-4)GlcNAc(b1-4)[Fuc(a1-6)]GlcNAc
# Outline: as §1
# [8] = biological target: Neu5Ac(a2-3)Gal(b1-4)GlcNAc(b1-2)Man(a1-3)[Neu5Ac(a2-6)Gal(b1-4)GlcNAc(b1-2)Man(a1-6)]Man(b1-4)GlcNAc(b1-4)GlcNAc
# Outline: as §1
# [9] = biological target: Neu5Ac(a2-3)Gal(b1-4)GlcNAc(b1-2)[Neu5Ac(a2-3)Gal(b1-4)GlcNAc(b1-4)]Man(a1-3)[GlcNAc(b1-4)][Neu5Ac(a2-3)Gal(b1-4)GlcNAc(b1-2)[Neu5Ac(a2-3)Gal(b1-4)GlcNAc(b1-6)]Man(a1-6)]Man(b1-4)GlcNAc(b1-4)GlcNAc
# Outline: as §1
# [10] = biological target: Neu5Ac(a2-3)Gal(b1-4)GlcNAc(b1-2)[Neu5Ac(a2-3)Gal(b1-4)GlcNAc(b1-4)]Man(a1-3)[GlcNAc(b1-4)][Neu5Ac(a2-3)Gal(b1-4)GlcNAc(b1-4)Man(a1-6)]Man(b1-4)GlcNAc(b1-4)GlcNAc
# Outline: as §1
# [11] = biological target: Neu5Ac(a2-3)Gal(b1-4)GlcNAc(b1-2)[Neu5Ac(a2-3)Gal(b1-4)GlcNAc(b1-6)]Man(a1-6)[Neu5Ac(a2-3)Gal(b1-4)GlcNAc(b1-2)Man(a1-3)]Man(b1-4)GlcNAc(b1-4)GlcNAc
# Outline: as §1
# [12] = biological target: Neu5Ac(a2-3)Gal(b1-4)GlcNAc(b1-2)[Neu5Ac(a2-3)Gal(b1-4)GlcNAc(b1-6)]Man(a1-6)[Neu5Ac(a2-3)Gal(b1-4)GlcNAc(b1-2)Man(a1-3)][GlcNAc(b1-4)]Man(b1-4)GlcNAc(b1-4)GlcNAc
# Outline: as §1
# [13] = biological target: Neu5Ac(a2-3)Gal(b1-4)GlcNAc(b1-3)Gal
# Outline: as §1
# [14] = biological target: Neu5Ac(a2-3)Gal(b1-4)GlcNAc(b1-3)Gal(b1-3)GlcNAc
# Outline: as §1
# [15] = biological target: Neu5Ac(a2-3)Gal(b1-4)GlcNAc(b1-3)Gal(b1-4)GlcNAc
# Outline: as §1
# [16] = biological target: Neu5Ac(a2-3)Gal(b1-4)GlcNAc(b1-3)Gal(b1-4)GlcNAc(b1-2)Man(a1-3)[Neu5Ac(a2-3)Gal(b1-4)GlcNAc(b1-3)Gal(b1-4)GlcNAc(b1-2)Man(a1-6)]Man(b1-4)GlcNAc(b1-4)GlcNAc
# Outline: as §1
# [17] = biological target: Neu5Ac(a2-3)Gal(b1-4)GlcNAc(b1-3)Gal(b1-4)GlcNAc(b1-3)Gal(b1-4)GlcNAc
# Outline: as §1
# [18] = biological target: Neu5Ac(a2-3)Gal(b1-4)GlcNAc(b1-3)Gal(b1-4)GlcNAc(b1-3)Gal(b1-4)GlcNAc(b1-2)Man(a1-3)[Neu5Ac(a2-3)Gal(b1-4)GlcNAc(b1-3)Gal(b1-4)GlcNAc(b1-3)Gal(b1-4)GlcNAc(b1-2)Man(a1-6)]GalNAc
# Outline: as §1
# [19] = biological target: Neu5Ac(a2-3)Gal(b1-4)GlcNAc(b1-3)Gal(b1-4)GlcNAc(b1-3)GalNAc
# Outline: as §1
# [20] = biological target: Neu5Ac(a2-3)Gal(b1-4)GlcNAc(b1-3)Gal(b1-4)GlcNAc(b1-3)[Neu5Ac(a2-3)Gal(b1-4)GlcNAc(b1-3)Gal(b1-4)GlcNAc(b1-6)]GalNAc
# Outline: as §1
# [21] = biological target: Neu5Ac(a2-3)Gal(b1-4)GlcNAc(b1-3)Gal(b1-4)GlcNAc(b1-6)[Gal(b1-3)]GalNAc
# Outline: as §1
# [22] = biological target: Neu5Ac(a2-3)Gal(b1-4)GlcNAc(b1-3)Gal(b1-4)[Fuc(a1-3)]GlcNAc
# Outline: as §1
# [23] = biological target: Neu5Ac(a2-3)Gal(b1-4)GlcNAc(b1-3)GalNAc
# Outline: as §1
# [24] = biological target: Neu5Ac(a2-3)Gal(b1-4)GlcNAc(b1-3)[Neu5Ac(a2-3)Gal(b1-4)GlcNAc(b1-6)]GalNAc
# Outline: as §1
# [25] = biological target: Neu5Ac(a2-3)Gal(b1-4)GlcNAc(b1-6)GalNAc
# Outline: as §1
# [26] = biological target: Neu5Ac(a2-3)Gal(b1-4)GlcNAc(b1-6)[Gal(b1-3)]GalNAc
# Outline: as §1
# [27] = biological target: Neu5Ac(a2-3)Gal(b1-4)GlcNAc(b1-6)[Neu5Ac(a2-3)Gal(b1-3)]GalNAc
# Outline: as §1
# [28] = biological target: Neu5Ac(a2-3)Gal(b1-4)GlcNAc6S
# Outline: as §1
# [29] = biological target: Neu5Ac(a2-3)Gal(b1-4)[Fuc(a1-3)]GlcNAc
# Outline: as §1
# [30] = biological target: Neu5Ac(a2-3)Gal(b1-4)[Fuc(a1-3)]GlcNAc(b1-2)Man
# Outline: as §1
binder,measurement,setting,value
B1,glycan array binding signal (z-score),[1],-0.019
same,glycan array binding signal (z-score),[2],-0.011
same,glycan array binding signal (z-score),[3],-0.131
same,glycan array binding signal (z-score),[4],2.11
same,glycan array binding signal (z-score),[5],1.69
same,glycan array binding signal (z-score),[6],1.94
same,glycan array binding signal (z-score),[7],2.76
same,glycan array binding signal (z-score),[8],-0.014
same,glycan array binding signal (z-score),[9],8.27
same,glycan array binding signal (z-score),[10],5.53
same,glycan array binding signal (z-score),[11],0.264
same,glycan array binding signal (z-score),[12],5.76
same,glycan array binding signal (z-score),[13],0.068
same,glycan array binding signal (z-score),[14],-0.026
same,glycan array binding signal (z-score),[15],0.122
same,glycan array binding signal (z-score),[16],0.014
same,glycan array binding signal (z-score),[17],-0.001
same,glycan array binding signal (z-score),[18],0.062
same,glycan array binding signal (z-score),[19],-0.133
same,glycan array binding signal (z-score),[20],-0.026
same,glycan array binding signal (z-score),[21],-0.108
same,glycan array binding signal (z-score),[22],-0.108
same,glycan array binding signal (z-score),[23],0.027
same,glycan array binding signal (z-score),[24],0.066
same,glycan array binding signal (z-score),[25],-0.061
same,glycan array binding signal (z-score),[26],-0.103
same,glycan array binding signal (z-score),[27],0.072
same,glycan array binding signal (z-score),[28],0.325
same,glycan array binding signal (z-score),[29],-0.092
same,glycan array binding signal (z-score),[30],-0.074
